Results taken from publication PMC9911399, “Two distinct binding modes provide the RNA-binding protein RbFox with extraordinary sequence specificity”.
Where a chain is given by its changes, count along the chain named. This is one part of the list.

T1: RBFOX1 RRM (Homo sapiens, UniProt Q9NWB1 109-208)
T1 sequence: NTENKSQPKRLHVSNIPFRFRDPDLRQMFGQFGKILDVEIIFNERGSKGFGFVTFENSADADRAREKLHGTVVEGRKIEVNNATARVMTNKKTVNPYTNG

B1: AGUCUAC (DNA:RNA)
RNA: GGGAGACCGGAAUUCAGAUUGUCCAGUCUACUUAAAUCCCGUCGUAGCCACCA
DNA 1: CAATCTGAATTCCGGTCTCCC
DNA 2: TGGTGGCTACGACGGGATT
B2: CCUACGC (DNA:RNA)
RNA: B1 RNA with A25C, G26C, C28A, U29C, A30G
DNA 1: CAATCTGAATTCCGGTCTCCC
DNA 2: TGGTGGCTACGACGGGATT
B3: GUCGACG (DNA:RNA)
RNA: GGGAGACCGGAAUUCAGAUUGUCCGUCGACGUUAAAUCCCGUCGUAGCCACCA
DNA 1: CAATCTGAATTCCGGTCTCCC
DNA 2: TGGTGGCTACGACGGGATT
B4: CUUAUUU (DNA:RNA)
RNA: B1 RNA with A25C, G26U, C28A, A30U, C31U
DNA 1: CAATCTGAATTCCGGTCTCCC
DNA 2: TGGTGGCTACGACGGGATT
B5: CGGGCAA (DNA:RNA)
RNA: B1 RNA with A25C, U27G, C28G, U29C, C31A
DNA 1: CAATCTGAATTCCGGTCTCCC
DNA 2: TGGTGGCTACGACGGGATT
B6: AUUCUAU (DNA:RNA)
RNA: B1 RNA with G26U, C31U
DNA 1: CAATCTGAATTCCGGTCTCCC
DNA 2: TGGTGGCTACGACGGGATT
B7: AUAUGUA (DNA:RNA)
RNA: B1 RNA with G26U, U27A, C28U, U29G, A30U, C31A
DNA 1: CAATCTGAATTCCGGTCTCCC
DNA 2: TGGTGGCTACGACGGGATT
B8: GGAGGGU (DNA:RNA)
RNA: B3 RNA with U26G, C27A, A29G, C30G, G31U
DNA 1: CAATCTGAATTCCGGTCTCCC
DNA 2: TGGTGGCTACGACGGGATT
B9: CAGUCCG (DNA:RNA)
RNA: B3 RNA with G25C, U26A, C27G, G28U, A29C
DNA 1: CAATCTGAATTCCGGTCTCCC
DNA 2: TGGTGGCTACGACGGGATT
B10: CACGCGG (DNA:RNA)
RNA: B3 RNA with G25C, U26A, A29C, C30G
DNA 1: CAATCTGAATTCCGGTCTCCC
DNA 2: TGGTGGCTACGACGGGATT
B11: UCGAAGA (DNA:RNA)
RNA: B3 RNA with G25U, U26C, C27G, G28A, C30G, G31A
DNA 1: CAATCTGAATTCCGGTCTCCC
DNA 2: TGGTGGCTACGACGGGATT
B12: GACGUUU (DNA:RNA)
RNA: B3 RNA with U26A, A29U, C30U, G31U
DNA 1: CAATCTGAATTCCGGTCTCCC
DNA 2: TGGTGGCTACGACGGGATT
B13: CUGUAGC (DNA:RNA)
RNA: B3 RNA with G25C, C27G, G28U, C30G, G31C
DNA 1: CAATCTGAATTCCGGTCTCCC
DNA 2: TGGTGGCTACGACGGGATT
B14: CAUCUUA (DNA:RNA)
RNA: B1 RNA with A25C, G26A, A30U, C31A
DNA 1: CAATCTGAATTCCGGTCTCCC
DNA 2: TGGTGGCTACGACGGGATT
B15: GUGAGAU (DNA:RNA)
RNA: B3 RNA with C27G, G28A, A29G, C30A, G31U
DNA 1: CAATCTGAATTCCGGTCTCCC
DNA 2: TGGTGGCTACGACGGGATT
B16: CCUGAGA (DNA:RNA)
RNA: B3 RNA with G25C, U26C, C27U, C30G, G31A
DNA 1: CAATCTGAATTCCGGTCTCCC
DNA 2: TGGTGGCTACGACGGGATT
B17: UUAAACC (DNA:RNA)
RNA: B3 RNA with G25U, C27A, G28A, G31C
DNA 1: CAATCTGAATTCCGGTCTCCC
DNA 2: TGGTGGCTACGACGGGATT
B18: GCGCUCC (DNA:RNA)
RNA: B1 RNA with A25G, G26C, U27G, A30C
DNA 1: CAATCTGAATTCCGGTCTCCC
DNA 2: TGGTGGCTACGACGGGATT
B19: UGUCUCU (DNA:RNA)
RNA: B1 RNA with A25U, A30C, C31U
DNA 1: CAATCTGAATTCCGGTCTCCC
DNA 2: TGGTGGCTACGACGGGATT
B20: UCCUGUC (DNA:RNA)
RNA: B1 RNA with A25U, G26C, U27C, C28U, U29G, A30U
DNA 1: CAATCTGAATTCCGGTCTCCC
DNA 2: TGGTGGCTACGACGGGATT
B21: UGAGUGA (DNA:RNA)
RNA: B1 RNA with A25U, U27A, C28G, A30G, C31A
DNA 1: CAATCTGAATTCCGGTCTCCC
DNA 2: TGGTGGCTACGACGGGATT
B22: CACCCGG (DNA:RNA)
RNA: B3 RNA with G25C, U26A, G28C, A29C, C30G
DNA 1: CAATCTGAATTCCGGTCTCCC
DNA 2: TGGTGGCTACGACGGGATT
B23: UCAAGGU (DNA:RNA)
RNA: GGGAGACCGGAAUUCAGAUUGUCCUCAAGGUUUAAAUCCCGUCGUAGCCACCA
DNA 1: CAATCTGAATTCCGGTCTCCC
DNA 2: TGGTGGCTACGACGGGATT
B24: ACCCUGG (DNA:RNA)
RNA: B1 RNA with G26C, U27C, A30G, C31G
DNA 1: CAATCTGAATTCCGGTCTCCC
DNA 2: TGGTGGCTACGACGGGATT
B25: CUAGACA (DNA:RNA)
RNA: B3 RNA with G25C, C27A, G31A
DNA 1: CAATCTGAATTCCGGTCTCCC
DNA 2: TGGTGGCTACGACGGGATT
B26: AAUCGCG (DNA:RNA)
RNA: B1 RNA with G26A, U29G, A30C, C31G
DNA 1: CAATCTGAATTCCGGTCTCCC
DNA 2: TGGTGGCTACGACGGGATT
B27: ACAUUUA (DNA:RNA)
RNA: B1 RNA with G26C, U27A, C28U, A30U, C31A
DNA 1: CAATCTGAATTCCGGTCTCCC
DNA 2: TGGTGGCTACGACGGGATT
B28: CGGAUAC (DNA:RNA)
RNA: B1 RNA with A25C, U27G, C28A
DNA 1: CAATCTGAATTCCGGTCTCCC
DNA 2: TGGTGGCTACGACGGGATT
B29: AUUGGGC (DNA:RNA)
RNA: B1 RNA with G26U, C28G, U29G, A30G
DNA 1: CAATCTGAATTCCGGTCTCCC
DNA 2: TGGTGGCTACGACGGGATT
B30: UUGGUAU (DNA:RNA)
RNA: B1 RNA with A25U, G26U, U27G, C28G, C31U
DNA 1: CAATCTGAATTCCGGTCTCCC
DNA 2: TGGTGGCTACGACGGGATT
B31: AAGCAGG (DNA:RNA)
RNA: B1 RNA with G26A, U27G, U29A, A30G, C31G
DNA 1: CAATCTGAATTCCGGTCTCCC
DNA 2: TGGTGGCTACGACGGGATT

Each binder was assayed against T1, RBFOX1 RRM (assay: EMSA; HiTS-Eq, 1 nM pool, 10 min; buffer printed only for the single-RNA assays: 10 mM Tris pH 7.5, 150 mM NaCl, 3.4 mM EDTA, 0.001% NP-40, 30 C). Conditions: tags: His6 N-terminal (pET28a); label: 5' 32P.
Procedure, shortened: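 These values rest on relative association constants, computed from read-count changes of each RNA species versus the control reaction and normalised to the cognate motif. Reads came from free RNA recovered by 8% native PAGE after purified RbFox RRM (wild type or mutant) at increasing concentrations was equilibrated for 10 min in 50 µL with 1 nM of a 5′-radiolabelled pool with 7 randomized nucleotides and DNA-annealed flanks.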
In the case of B1, the binding signal is reported as 0.00347 KA relative to UGCAUGU. For B2, the binding signal was 0.00459 KA relative to UGCAUGU. In the case of B3, the binding signal is reported as 0.0133 KA relative to UGCAUGU. For B4, the binding signal was 0.00591 KA relative to UGCAUGU. With B5 the binding signal was 0.0227 KA relative to UGCAUGU. With B6 the binding signal was 0.00167 KA relative to UGCAUGU. For B7, the binding signal was 0.00513 KA relative to UGCAUGU. B8 was tested, and the binding signal was 0.0168 KA relative to UGCAUGU. For B9, the binding signal was 0.00831 KA relative to UGCAUGU. For B10, the binding signal was 0.00376 KA relative to UGCAUGU. B11 was tested, and the binding signal was 0.00871 KA relative to UGCAUGU. With B12 the binding signal was 0.0167 KA relative to UGCAUGU. B13 was tested, and the binding signal was 0.0127 KA relative to UGCAUGU. B14 was tested, and the binding signal was 0.00114 KA relative to UGCAUGU. B15 was tested, and the binding signal was 0.0157 KA relative to UGCAUGU. B16 was tested, and the binding signal was 0.0128 KA relative to UGCAUGU. In the case of B17, the binding signal is reported as 0.000916 KA relative to UGCAUGU. In the case of B18, the binding signal is reported as 0.00896 KA relative to UGCAUGU. For B19, the binding signal was 0.00998 KA relative to UGCAUGU. For B20, the binding signal was 0.0169 KA relative to UGCAUGU. B21 was tested, and the binding signal was 0.0154 KA relative to UGCAUGU. For B22, the binding signal was 0.00343 KA relative to UGCAUGU. In the case of B23, the binding signal is reported as 0.0126 KA relative to UGCAUGU. For B24, the binding signal was 0.00765 KA relative to UGCAUGU. B25 was tested, and the binding signal was 0.00428 KA relative to UGCAUGU. For B26, the binding signal was 0.00509 KA relative to UGCAUGU. With B27 the binding signal was 0.000401 KA relative to UGCAUGU. For B28, the binding signal was 0.0143 KA relative to UGCAUGU. With B29 the binding signal was 0.00837 KA relative to UGCAUGU. In the case of B30, the binding signal is reported as 0.0146 KA relative to UGCAUGU. In the case of B31, the binding signal is reported as 0.0101 KA relative to UGCAUGU.
